Laboratory results: PubChem BioAssay AID504832 (National Center for Advancing Translational Sciences (NCATS), 2011)
Out of some 310,000 compounds screened, about 18,000 (5.8%) were called active. The shares of active, inactive and inconclusive entries below differ from those in the screen. Calls come from the whole dose curve; as a rule, active = well fitted inhibition curve with a large enough effect; inconclusive = small, poorly fitted or top-dose-only effect, or another doubt; inactive = no such curve, though single readings can be large or run the other way. No potency is given beside an inconclusive call; the fits are too rough.

Assay: Primary qHTS for delayed death inhibitors of the malarial parasite plastid, 48 hour incubation
Settings: P. falciparum luciferase growth in erythrocytes; series mostly up to 28.7 µM
Outline: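 Erythrocytes infected with P. falciparum carrying an integrated firefly luciferase reporter (2% hematocrit, 0.1% parasitemia final) were exposed to compounds in RPMI 1640 with 0.5% Albumax at 37 C, 5% CO2. Growth inhibition was scored as reduced luminescence.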
% is set by controls: 0 for no effect and ±100 for the full control effect; potency is the fitted concentration of half-maximal effect; tags give direction and shape of the fitted curve.

Structure (SMILES)	Potency	activity change, negative = inhibition
C/C(=N/OC(=O)c1ccc(C(F)(F)F)cc1)c1oc(C)nc1C	inconclusive [inhibitor, single point]	
CC(C)(C)NC(=O)C(c1cccs1)N(Cc1cccs1)C(=O)c1csnn1 (stereo unspecified)	inconclusive [inhibitor, partial curve]	
COc1cc(OC)cc(-c2c(-c3ccc(F)cc3)c3cc(-c4cccc5[nH]ccc45)ccc3n2C)c1	inconclusive [inhibitor, partial curve]	
COc1ccc(OC)c(NC(=O)C(=S)NC2CCCCC2)c1	inconclusive [inhibitor, partial curve]	
Cc1ccccc1C(=O)Nc1ccc(N2CCN(C(=O)c3ccco3)CC2)cc1	inactive	
CCOc1ccccc1-n1c(=S)sc2c(=O)n(-c3ccccc3)c(=S)[nH]c21	inactive	
COCc1ccc(CN2CCCC(C(=O)Nc3ccccc3-c3ccc(OC)cc3)C2)o1 (stereo unspecified)	inconclusive [inhibitor, partial curve]	
Cc1ccc(S(=O)(=O)N(C)c2ccc(OCC(=O)Nc3cccc(-n4cnnn4)c3C)cc2)cc1	inconclusive [inhibitor, partial curve, poor fit]	
COc1ccc(CCNC(=O)CSc2nc(-c3ccco3)cc(C(F)(F)F)n2)cc1	inconclusive [inhibitor, single point]	
CC1CCCC(NC(=O)c2cccc(S(=O)(=O)N3CCN(c4ccccc4)CC3)c2)C1C (stereo unspecified)	inconclusive [inhibitor, single point]	
O=C(CN1CCN(Cc2ccccc2)CC1)Nc1cccc(S(=O)(=O)N2CCCCCC2)c1	inconclusive [inhibitor, partial curve, poor fit]	
Cc1ccc(Cn2c(O)c(N=NC(=S)Nc3ccccc3F)c3ccccc32)cc1	inconclusive [inhibitor, full curve, poor fit]	
CCNCc1cc([N+](=O)[O-])ccc1OCC	inactive	
Cn1c(N/N=C/c2cccs2)nc2c1c(=O)n(Cc1ccccc1)c(=O)n2C	inactive	
COc1cccc([C@@H]2CC=C(C(=O)O)[C@H](c3ccccc3)N2S(=O)(=O)c2ccc(C)cc2)c1	inconclusive [inhibitor, single point]	
CC(=O)OC1=CC[C@H]2[C@@H]3CC[C@H]4C[C@H](OC(C)=O)[C@@H](OC(C)=O)C[C@]4(C)[C@H]3CC[C@]12C	inconclusive [inhibitor, single point]	
COC(=O)C1CCN(C(=O)COC(=O)c2cc([N+](=O)[O-])ccc2N2CCOCC2)CC1	inconclusive [inhibitor, single point]	
O=S(=O)(O)c1cc(I)c(O)c2ncccc12	inconclusive [inhibitor, single point]	
COc1ccccc1OCc1n[nH]c(=S)n1Cc1ccccc1	inconclusive [inhibitor, partial curve]	
Cc1ccccc1C1c2[nH]c3ccccc3c2C[C@H]2C(=O)N(C3CC3)CC(=O)N12 (stereo partly specified)	active: 11.7 µM	
C#Cc1ccc([C@H]2C=C(C(=O)N3CCN(Cc4ccc5c(c4)OCO5)CC3)O[C@@H](OCc3ccc(CO)cc3)C2)cc1	inconclusive [inhibitor, full curve, poor fit]	

Structure (SMILES)	Potency	activity change, negative = inhibition
CCOC(=O)c1ccc(NC(=O)c2cccc(S(=O)(=O)N3CCN(C(C)=O)CC3)c2)cc1	inconclusive [inhibitor, partial curve, poor fit]	
Cc1ccc(C(=O)NCC(=O)OCCCn2c(=O)[nH]c3ccccc32)cc1	inconclusive [inhibitor, single point]	
COc1cccc(-c2ccc3c(c2)S(=O)(=O)c2cccc(C(=O)O)c2C3=O)c1OC	inactive	
O=C(NN(C(=O)c1ccccc1)c1ccccc1)c1ccccc1	inconclusive [inhibitor, single point]	
CCC(=O)N1CCN(c2ccccc2NC(=S)NC(=O)c2cccc([N+](=O)[O-])c2)CC1	inactive	
O=C(NCc1ccccn1)c1cc(-c2ccccc2)nc2ccccc12	inconclusive [inhibitor, single point]	
COc1cc(/C=N/n2c(-c3cc(C)[nH]n3)n[nH]c2=S)cc(OC)c1O	inactive	
COc1ccccc1C1CCN(Cc2ccccc2)CC1		inactive: 17.2% [at 0.00184 µM]
C=CC[n+]1c(-c2ccc(C)cc2)csc1Nc1ccc(NC(C)=O)cc1	inconclusive [inhibitor, partial curve, poor fit]	
COc1ccc(NC(=S)N2CCCC2)cc1OC	inactive	
CCOc1ccccc1NC(=O)NCCCCc1ccccc1	inconclusive [inhibitor, single point]	
O=C1CCCN2N=C(SCC(=O)Nc3ccc(F)cc3F)SC2=N1	inactive	
O=C(NCCCN1CCCC1=O)c1cccc(S(=O)(=O)N2CCCCC2)c1	inconclusive [inhibitor, partial curve, poor fit]	
O=C(O)c1ccc(/C=N/N2CCN(C3c4ccccc4-c4ccccc43)CC2)cc1	inconclusive [inhibitor, partial curve, poor fit]	
CN(C)CCOCCOc1ccc(Cl)cc1C(C)(C)C	inconclusive [inhibitor, single point]	
CC(C)CCNC(=O)Nc1ccc2c(c1)N(C)C(=O)CS2	inconclusive [inhibitor, partial curve]	
CCCN(CCC)S(=O)(=O)c1ccc(C(=O)NCc2n[nH]c(=S)n2-c2ccc(Cl)c(Cl)c2)cc1	inconclusive [inhibitor, single point]	
CCOc1ccc(S(=O)(=O)N2CCOCC2)cc1NC(=O)CSCC(=O)Nc1cccc(C)c1	inconclusive [inhibitor, single point]	
CCCN1C(=O)SC(CC(=O)Nc2ccccc2)C1=O (stereo unspecified)	inactive	
Cc1cc(C)c(C(=O)N2CCCC(CNS(=O)(=O)N(C)C)C2)o1 (stereo unspecified)	inactive	
